# Measurements published in PubChem BioAssay AID1768 (National Center for Advancing Translational Sciences (NCATS), 2009).
# Where “and” joins values, the source holds several entries; their conditions need not be identical. Equal entries are not always repeated. Among all 270,000 compounds or so, about 620 (0.23%) were called active. The inconclusive results got no clear call from the source; some entries with a clear call stand among them for comparison. Calls come from the whole dose curve; as a rule, active = well fitted inhibition curve with a large enough effect in the polarisation, with a control signal flat (not every such curve was filed as active); inconclusive = small, poorly fitted or top-dose-only effect, or effect the other way, or a change in a side signal; inactive = no such curve, though single readings can be large or run the other way; the % refers to the polarisation. Potencies of inconclusive entries are doubtful fits and often do not repeat. A note “side channel” means that the fit belongs to a control or component signal, not to the main read-out.
# Target: Menin (Homo sapiens) (UniProt O00255)
# Sequence of UniProt O00255 (O00255 whole entry, looked up): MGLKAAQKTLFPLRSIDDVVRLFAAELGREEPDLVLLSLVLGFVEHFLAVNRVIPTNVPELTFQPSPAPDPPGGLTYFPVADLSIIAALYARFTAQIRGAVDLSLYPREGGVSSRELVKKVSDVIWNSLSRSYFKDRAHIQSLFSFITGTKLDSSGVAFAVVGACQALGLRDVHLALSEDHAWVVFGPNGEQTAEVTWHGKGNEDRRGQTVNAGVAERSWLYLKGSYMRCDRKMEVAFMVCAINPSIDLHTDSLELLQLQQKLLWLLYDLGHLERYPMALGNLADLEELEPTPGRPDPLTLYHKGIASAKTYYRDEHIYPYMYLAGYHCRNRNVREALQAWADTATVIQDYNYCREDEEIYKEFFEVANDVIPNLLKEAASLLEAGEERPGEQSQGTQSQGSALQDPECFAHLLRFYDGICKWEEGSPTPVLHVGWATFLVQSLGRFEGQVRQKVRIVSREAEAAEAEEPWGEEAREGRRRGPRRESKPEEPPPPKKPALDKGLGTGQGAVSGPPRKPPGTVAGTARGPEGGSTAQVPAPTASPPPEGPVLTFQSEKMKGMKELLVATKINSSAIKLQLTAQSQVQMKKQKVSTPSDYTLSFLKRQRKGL
# Assay: qHTS Assay for Inhibitors Targeting the Menin-MLL Interaction in MLL Related Leukemias: Competition With Texas Red Labeled MLL-derived Mutant Peptide
# Conditions: fluorescence polarization; series mostly up to 61.6 µM
# Potency is the fitted concentration of half-maximal effect; tags give direction and shape of the fitted curve or compound fluorescence and quenching.
row,Compound,Potency
1,COc1cc(/C=C2\SC(=O)N(Cc3ccc(F)cc3)C2=O)cc([N+](=O)[O-])c1O,"inconclusive: 12.6 µM [quencher, side channel, partial curve]"
2,COc1ccccc1[C@H]1C(c2ccccc2)=NN(c2ccccc2)[C@@H]1CO,"inconclusive: 28.2 µM [quencher, side channel, partial curve]"
3,Cc1ccc(-c2cc(N)n(Cc3ccc(Cl)cc3)n2)cc1,"inconclusive: 15.8 µM [quencher, side channel, partial curve]"
4,C=CCc1cccc(CNc2nc3ccccc3n2C)c1O,"inconclusive: 14.1 µM [quencher, side channel, partial curve]"
5,CCOc1cccc(C(=O)Nc2ccc(N3CCCC3)cc2)c1,"inconclusive: 31.6 µM [quencher, side channel, single point]"
6,CCOc1cc(-c2cn(S(=O)(=O)c3cccc4nsnc34)nc2N)cc(OCC)c1OCC,"inconclusive: 25.1 µM [quencher, side channel, partial curve]"
7,COC(=O)c1sc(NC(=O)c2ccc(Cn3cc(Cl)cn3)o2)c(C#N)c1C,"inconclusive: 31.6 µM [quencher, single point]"
8,C/C(=N\NC(=O)c1cc(-c2cccnc2)nc2ccccc12)c1ccccc1O,"inconclusive: 11.2 µM [quencher, side channel, partial curve]"
9,O=C(O)CCn1cc(C2CC(c3ccccc3)=NN2c2ccccc2)c(-c2ccccc2)n1 (centres undefined),"inconclusive: 20 µM [quencher, side channel, partial curve]"
10,O=C(CCNc1cccc(F)c1)c1cccc([N+](=O)[O-])c1,"inconclusive: 20 µM [quencher, side channel, partial curve]"
11,O=C(Nc1ccncc1)Nc1cc(Cl)ccc1Cl,"inconclusive: 7.08 µM [quencher, side channel, partial curve]"
12,CCc1nn(CCCN2CCN(c3cccc(Cl)c3)CC2)c(=O)n1CCOc1ccccc1,"inconclusive: 14.1 µM [fluorescent, side channel, partial curve] and inconclusive: 3.16 µM [inhibitor, full curve] and inconclusive: 20 µM [inhibitor, partial curve]"
13,COCCN=c1scc(-c2cc(OC)ccc2OC)n1/N=C/c1c[nH]c2ccccc12,"inconclusive: 12.6 µM [quencher, side channel, partial curve]"
14,COc1cccc(NC(=O)c2ccccc2-c2nc(-c3ccc(F)cc3)no2)c1,"inconclusive: 2.24 µM [quencher, side channel, full curve, poor fit]"
15,COC(=O)CC1=NN(c2ccc(OC)cc2)C(=O)/C1=C\c1ccc(Cl)cc1,"inconclusive: 11.2 µM [quencher, side channel, partial curve]"
16,COc1cc(-c2cc(C(=O)Nc3ccc(S(N)(=O)=O)cc3)c3ccccc3n2)cc(OC)c1OC,"inconclusive: 2.82 µM [quencher, side channel, full curve, poor fit]"
17,CCN(Cc1ccccc1)c1ccc(/C=N/NS(=O)(=O)c2ccc(C)c([N+](=O)[O-])c2)cc1,"inconclusive: 22.4 µM [quencher, side channel, partial curve]"

row,Compound,Potency
1,O=C(CCN1C(=O)c2ccccc2C1=O)Nc1ccc(-c2nc3ccccc3o2)cc1,"inconclusive: 6.31 µM [inhibitor, partial curve]"
2,COc1ccc2[nH]c(=O)c(CN(C)C(=O)c3ccncc3)cc2c1,inactive
3,C=CCN(C(=O)CSc1nc2ccsc2c(=O)n1Cc1ccccn1)c1ccccc1,"inconclusive: 11.2 µM [fluorescent, side channel, partial curve]"
4,Cc1ccc(NC(=O)CCCCCCCCCCC2COCCO2)c(C)c1 (centres undefined),inactive
5,Cc1ccc(OCCN2C(=O)C(=O)c3cc(C)ccc32)cc1,"inconclusive: 15.8 µM [fluorescent, side channel, partial curve]"
6,COC(=O)C1=NNC2(c3ccc(C)cc3)C(=O)N(c3ccc(C)cc3)C(=O)C12 (centres undefined),"inconclusive: 44.7 µM [fluorescent, side channel, partial curve, poor fit]"
7,CC1CCN(C(=O)Cc2nn(C)c(=O)c3ccccc23)CC1,"inconclusive: 10 µM [inhibitor, partial curve]"
8,Cc1c(C)n(CCc2ccccc2)c2ncnc(NCCCN(C)C)c12,"inconclusive: 14.1 µM [inhibitor, partial curve]"
9,Cc1ccc(N=Nc2[nH]c3ccccc3c2O)cc1,inactive
10,CC(C)c1cccc(C(C)C)c1NC(=O)CNCc1ccccc1F,"inconclusive: 10 µM [inhibitor, partial curve]"
11,CCC(CC)C(=O)Nc1nnc(S(=O)(=O)N(CC)c2ccc(OC)cc2)s1,"inconclusive: 39.8 µM [inhibitor, single point]"
12,COc1cc(/C=C2\SC(=O)N(c3ccccc3Cl)C2=O)cc([N+](=O)[O-])c1O,"inconclusive: 15.8 µM [quencher, side channel, partial curve]"
13,Cc1ccc(C)c(N/C(N)=N/c2nc(C)cc(C)n2)c1,"inconclusive: 8.91 µM [inhibitor, partial curve]"
14,O=C(Nc1ccc2ccccc2c1)/C(=C/c1cccc(Br)c1)NC(=O)c1ccco1,"inconclusive: 35.5 µM [inhibitor, single point]"
15,N#C/C(=C/c1cn(CC(=O)O)c2ccccc12)C(=O)Nc1ccccc1,"inconclusive: 22.4 µM [quencher, side channel, partial curve]"
16,COc1ccccc1/C=C\C=N\n1c(-c2ccc(Cl)cc2)n[nH]c1=S,"inconclusive: 39.8 µM [quencher, side channel, single point]"
17,C=CCNc1nc2c(c(=O)[nH]c(=O)n2C)n1CCCCC,"inconclusive: 0.708 µM [inhibitor, full curve, poor fit]"
